What was measured:
[1] = molecular target: T1, insulin degrading enzyme (IDE) (Rattus norvegicus, UniProt P35559); assay: Sensitivity towards proteolytic degradation by IDE (activity on receptor cell line after incubation); type: in vitro ADME; details: 4 hours, 37° C., 0.6 μg/ml IDE
T1 construct: purchased Merck 407241-50UG
T1 sequence (P35559 1-1019): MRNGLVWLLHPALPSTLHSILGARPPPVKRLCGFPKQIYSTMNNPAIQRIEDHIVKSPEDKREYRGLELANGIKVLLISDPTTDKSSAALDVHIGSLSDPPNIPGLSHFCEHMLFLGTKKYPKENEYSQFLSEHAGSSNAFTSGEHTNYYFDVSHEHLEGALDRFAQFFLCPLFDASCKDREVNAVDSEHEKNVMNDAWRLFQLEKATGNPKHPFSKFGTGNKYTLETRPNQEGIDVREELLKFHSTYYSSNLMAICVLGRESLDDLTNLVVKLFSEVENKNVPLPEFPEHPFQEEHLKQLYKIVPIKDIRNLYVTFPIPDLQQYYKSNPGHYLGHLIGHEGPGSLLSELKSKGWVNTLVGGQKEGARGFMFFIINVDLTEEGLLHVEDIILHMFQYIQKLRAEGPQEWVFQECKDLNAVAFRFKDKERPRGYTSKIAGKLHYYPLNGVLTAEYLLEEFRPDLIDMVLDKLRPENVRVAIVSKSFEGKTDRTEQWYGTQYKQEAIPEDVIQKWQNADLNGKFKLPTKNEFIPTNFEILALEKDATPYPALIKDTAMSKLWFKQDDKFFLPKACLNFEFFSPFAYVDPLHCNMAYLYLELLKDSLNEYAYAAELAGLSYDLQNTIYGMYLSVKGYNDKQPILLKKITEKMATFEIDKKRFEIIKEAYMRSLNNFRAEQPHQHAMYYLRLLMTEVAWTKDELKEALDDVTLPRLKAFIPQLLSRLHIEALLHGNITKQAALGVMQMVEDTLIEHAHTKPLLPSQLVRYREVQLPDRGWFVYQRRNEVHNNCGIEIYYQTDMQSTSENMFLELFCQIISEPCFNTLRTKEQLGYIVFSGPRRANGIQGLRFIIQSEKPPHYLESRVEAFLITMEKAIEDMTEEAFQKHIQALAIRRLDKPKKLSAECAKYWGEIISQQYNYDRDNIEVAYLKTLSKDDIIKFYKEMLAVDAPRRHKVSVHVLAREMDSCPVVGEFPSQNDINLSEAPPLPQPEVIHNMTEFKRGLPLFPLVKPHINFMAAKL

[2] = molecular target: T2, neutral endopeptidase (NEP) (Homo sapiens, UniProt P08473); assay: Sensitivity towards proteolytic degradation by NEP (activity on receptor cell line after incubation); type: in vitro ADME; details: 4 hours, 37° C., 0.6 μg/ml NEP
T2 construct: purchased R&D Systems 1182-ZNC

[3] = molecular target: T3, human NPRA (hNPRA) (Homo sapiens, UniProt P16066); assay: cGMP quantification assay (HTRF) on stable hNPRA-CHO k1 cells (rcs, ics, pcs samples); type: cell-based
T3 construct: expressed in transfected cells
T3 sequence (P16066 33-1061): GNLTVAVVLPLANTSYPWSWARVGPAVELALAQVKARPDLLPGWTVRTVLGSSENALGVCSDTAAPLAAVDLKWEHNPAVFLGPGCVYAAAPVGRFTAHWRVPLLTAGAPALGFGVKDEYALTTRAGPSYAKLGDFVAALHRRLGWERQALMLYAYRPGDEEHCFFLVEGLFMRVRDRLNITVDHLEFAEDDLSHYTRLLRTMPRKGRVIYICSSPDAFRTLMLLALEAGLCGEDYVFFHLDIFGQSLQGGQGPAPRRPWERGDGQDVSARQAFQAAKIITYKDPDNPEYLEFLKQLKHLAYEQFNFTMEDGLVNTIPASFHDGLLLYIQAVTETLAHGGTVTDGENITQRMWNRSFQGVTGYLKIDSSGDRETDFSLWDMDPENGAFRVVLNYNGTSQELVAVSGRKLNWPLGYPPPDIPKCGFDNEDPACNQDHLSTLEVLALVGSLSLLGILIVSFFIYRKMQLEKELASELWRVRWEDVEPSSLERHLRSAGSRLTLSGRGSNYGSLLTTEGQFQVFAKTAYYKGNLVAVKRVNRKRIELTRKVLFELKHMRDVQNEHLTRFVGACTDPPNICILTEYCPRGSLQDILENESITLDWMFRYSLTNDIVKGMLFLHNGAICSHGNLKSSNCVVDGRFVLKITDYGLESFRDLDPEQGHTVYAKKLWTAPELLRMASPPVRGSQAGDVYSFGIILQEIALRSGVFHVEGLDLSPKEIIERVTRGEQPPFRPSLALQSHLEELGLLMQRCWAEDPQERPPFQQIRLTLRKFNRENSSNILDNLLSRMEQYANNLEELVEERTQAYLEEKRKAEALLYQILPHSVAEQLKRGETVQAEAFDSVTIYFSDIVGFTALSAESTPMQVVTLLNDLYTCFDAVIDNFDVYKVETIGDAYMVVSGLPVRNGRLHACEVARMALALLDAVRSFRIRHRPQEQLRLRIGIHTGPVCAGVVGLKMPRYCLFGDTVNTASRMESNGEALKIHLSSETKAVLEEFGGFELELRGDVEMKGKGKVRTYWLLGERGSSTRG
Procedure: All activities shown in Tables 7 and 8 were measured on cells with heterologous over expression of human NPRA (hNPRA) by use of a cGMP quantification assay conducted according to manufacturer's instructions (cisbio; 62GM2PEH). In brief, the assay quantifies cGMP in buffered solution or cell-culture supernatants based on the competition between cGMP produced by the cell as result of the NPRA stimulation through the (natriuretic peptide) sample and d2 labelled cGMP for binding to a Cryptate labelled antibody. Sample cGMP and d2 labeled cGMP compete for binding to a limited number of sites on Cryptate labeled anti-cGMP antibodies, and consequently, HTRF® specific fluorescent signal (i.e. energy transfer) is inversely proportional to the concentration of cGMP in the sample.
Dose-response curve data were analyzed with GraphPad Prism (version 7.00 for Windows, GraphPad Software, La Jolla California USA) and EC50 were fitted according to Y=Bottom+(Top-Bottom)/(1+10∧((Log EC50-X)*HillSlope)) applying constraints for bottom, top and slope (shared value for all data sets of the respective experiment).
The raw compound sample activity on stable hNPRA-CHO k1 cells was first assessed by comparison to the negative control TPP-5657 and to a positive sample, in particular TPP-5661. Controls and res were tested in quadruplets in two concentrations with a relative dilution factor of 5 aiming for a fluorescent signal (s) in the dynamic range of the assay. […] Values listed in Table 7, columns “activity res” and “stdev activity res”, represent the average of the results for the two concentrations and the respective standard deviation. Res signals less than half of the signal of the reference compound TPP-5661 (36%) were assessed as not active (n.a.).
The activity of several raw compound samples on stable hNPRA-CHO k1 cells was reassessed by comparison to reference sample TPP-5661 in 2.5-fold dilution series (8 concentrations) starting with a 5-fold dilution. The “log EC50” fit value as activity measure of the res was set in relation to the corresponding value of the reference res TPP-5661 by calculating the delta “log EC50” _compound −“log EC50” _TPP-5661; resulting values are listed in Table 7, column “rel. activity res”. […] All samples were applied in quadruplets.
The activity of isolated compound samples on stable hNPRA-CHO k1 cells was assessed by EC50 determination and comparison to reference sample TPP-5661. Samples were tested in 2.5-fold dilution series from 80 nM to 0.13 nM. The log EC50 fit value as activity measure of the ics was set in relation to the corresponding value of the reference ics TPP-5661 (−8.8) by calculating the delta log EC50_compound−log EC50_TPP-5661; resulting values are listed in Table 7, column “rel. log EC50 ics”. All samples were applied in quadruplets.
The activity of purified compound samples on stable hNPRA-CHO k1 cells was assessed in multiple experiments by EC50 determination and comparison to reference sample TPP-5661. Samples were tested in dilution series at least in quadruplets. […] The log EC50 fit value as activity measure of the pcs was set in relation to the corresponding value of the reference TPP-5661 in the respective experiment (in average −9.2, standard deviation 0.5) by calculating the delta log EC50_compound−log EC50_TPP-5661.

T2 sequence (P08473 whole entry): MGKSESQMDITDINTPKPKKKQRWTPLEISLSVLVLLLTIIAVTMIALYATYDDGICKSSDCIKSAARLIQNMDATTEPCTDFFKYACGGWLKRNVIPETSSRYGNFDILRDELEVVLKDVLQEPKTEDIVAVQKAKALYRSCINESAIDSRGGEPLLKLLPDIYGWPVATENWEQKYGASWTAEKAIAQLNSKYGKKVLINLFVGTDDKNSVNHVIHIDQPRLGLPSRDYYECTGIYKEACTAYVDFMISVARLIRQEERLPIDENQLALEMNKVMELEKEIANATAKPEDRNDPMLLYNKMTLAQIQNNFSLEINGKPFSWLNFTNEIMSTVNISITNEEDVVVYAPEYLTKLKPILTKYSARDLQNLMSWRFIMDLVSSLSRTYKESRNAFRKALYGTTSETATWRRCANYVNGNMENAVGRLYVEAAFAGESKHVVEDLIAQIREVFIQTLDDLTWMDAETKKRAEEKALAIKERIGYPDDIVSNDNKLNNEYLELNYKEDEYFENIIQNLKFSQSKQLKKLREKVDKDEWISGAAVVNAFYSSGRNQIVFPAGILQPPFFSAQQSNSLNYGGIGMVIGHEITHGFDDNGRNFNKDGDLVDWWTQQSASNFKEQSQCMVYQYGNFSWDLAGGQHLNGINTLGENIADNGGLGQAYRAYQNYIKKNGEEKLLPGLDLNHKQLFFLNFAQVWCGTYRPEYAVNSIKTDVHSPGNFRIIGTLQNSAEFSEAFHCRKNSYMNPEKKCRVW

B1: TPP-12377: CNP engrafted antibody; heavy chain SEQ ID NO 445, light chain SEQ ID NO 66 (antibody, listed as Homo sapiens)
heavy: EVQLLESGGGLVQPGGSLRLSCAASGFTFSSYAMSWVRQAPGKGLEWVSAISGSGGSTYYADSVKGRFTISRDNSKNTLYLQMNSLRAEDTAVYYCTSVHQETKKYQSSPYKGANKKGLSKGCFGLKLDRIGSMSGLGCGSGGSGSYSYTYNYEWHVDVWGQGTLVTVSS[letters of human IgG1 constant region left out]
light: QSVLTQPPSVSGAPGQRVTISCTGSSSNIGAGYDVHWYQQLPGTAPKLLIYGNSNRPSGVPDRFSGSKSGTSASLAITGLQAEDEADYYCQSYDSSLSGVVFGGGTKLTVLGQPKAAPSVTLFPPSSEELQANKATLVCLISDFYPGAVTVAWKADSSPVKAGVETTTPSKQSNNKYAASSYLSLTPEQWKSHRSYSCQVTHEGSTVEKTVAPTECS
modifications: NP engrafted HC
For B1, the “sensitivity/resistance to proteolytic degradation by IDE” value [1] was “high resistance” and the “sensitivity/resistance to proteolytic degradation by NEP” value [2] was “high resistance”.

B2: TPP-18034: BNP (Hum28aa) engrafted human IgG1 antibody construct, CDRH3 (antibody, listed as Homo sapiens)
heavy: [letters of about 100 residues left out]GITGTKKYQSSPDGGSGGMVQGSGCFGRKMDRISSSSGLGCKVLRRGSYSYTYNYAEYFQHWGQGTLVTVSS[letters of human IgG1 constant region left out]
light: QSVLTQPPSVSGAPGQRVTISCTGSSSNIGAGYDVHWYQQLPGTAPKLLIYGNSNRPSGVPDRFSGSKSGTSASLAITGLQAEDEADYYCQSYDSSLSGVVFGGGTKLTVLGQPKAAPSVTLFPPSSEELQANKATLVCLISDFYPGAVTVAWKADSSPVKAGVETTTPSKQSNNKYAASSYLSLTPEQWKSHRSYSCQVTHEGSTVEKTVAPTECS
modifications: NP engrafted HC
notes: BNP (Hum28aa) engrafted human IgG1 antibody construct, CDRH3
B2 was tested, and the “qualit. activity on hNPRA” value ([3]; BNP engrafted antibody constructs, purified compound samples (pcs), dilution series in quadruplets, stable hNPRA-CHO k1 cells) was “++ (relative log EC50<0.7 were assessed as very active)”.

B3: TPP-10283: ANP engrafted antibody construct, CDRH2 (antibody, listed as Homo sapiens)
heavy: EVQLLESGGGLVQPGGSLRLSCAASGFTFSSYAMSWVRQAPGKGLEWVSAISGPNPNPNPNPNSPDGGSGGSLRRSSCFGGRMDRIGAQSGLGCNSFRYGSYNPNPNPNPNPGSTYYADSVKGRFTISRDNSKNTLYLQMNSLRAEDTAVYYCAKLTGAEYFQHWGQGTLVTVSS[letters of human IgG1 constant region left out]
light: QSVLTQPPSVSGAPGQRVTISCTGSSSNIGAGYDVHWYQQLPGTAPKLLIYGNSNRPSGVPDRFSGSKSGTSASLAITGLQAEDEADYYCQSYDSSLSGVVFGGGTKLTVLGQPKAAPSVTLFPPSSEELQANKATLVCLISDFYPGAVTVAWKADSSPVKAGVETTTPSKQSNNKYAASSYLSLTPEQWKSHRSYSCQVTHEGSTVEKTVAPTECS
modifications: NP engrafted HC
For B3, the “activity (qualit. activity, excerpt of Table 7)” value ([3]; ANP engrafted antibody constructs, summarized qualitative assessment from average rel. log EC50 vs reference TPP-5661 on hNPRA cells) was “+++ (highest activities were observed at relative log EC50 below −0.7)”, the activity rcs ([3]; raw compound samples (rcs) on stable hNPRA-CHO k1 cells, reference TPP-5661 (#117) gives 36%, n.a. = not active) was 83% and the qualit. activity ([3]; summarized qualitative assessment from average rel. log EC50 (hNPRA-CHO k1 and hNPRA-HEK293 data), n.e = not active, very low expression) was “+++ (highest activities were observed at relative log EC50 below −0.7)”.

B4: TPP-13230: ANP engrafted antibody construct, CDRH3 (antibody, listed as Homo sapiens)
heavy: [letters of about 100 residues left out]GITGTKKYQSSPDGGSGGSLRRSSCFGGRMDRIGAQSGLGCNSFRYGSYSYTYNYAEYFQHWGQGTLVTVSS[letters of human IgG1 constant region left out]
light: QSVLTQPPSVSGAPGQRVTISCTGSSSNIGAGYDVHWYQQLPGTAPKLLIYGNSNRPSGVPDRFSGSKSGTSASLAITGLQAEDEADYYCQSYDSSLSGVVFGGGTKLTVLGQPKAAPSVTLFPPSSEELQANKATLVCLISDFYPGAVTVAWKADSSPVKAGVETTTPSKQSNNKYAASSYLSLTPEQWKSHRSYSCQVTHEGSTVEKTVAPTECS
modifications: NP engrafted HC
In the case of B4, the qualit. activity ([3]; summarized qualitative assessment of activity relative to reference TPP-5661) is reported as “++ (relative log EC50<0.7 were assessed as very active)”.

Source: patent publication US20250236654A1, “C-TYPE NATRIURETIC PEPTIDE ENGRAFTED ANTIBODIES” (Bayer Aktiengesellschaft, priority 2018, published 2025)
